The test relates to NCI-H1944. The experiment in a line: normalised cell viability (NPI; 0 = phenylarsine oxide control, 1 = DMSO control) (fraction of DMSO control); NCI-H1944 is a non-small cell lung cancer line; higher = more viable cells (less compound toxicity). The note with it: 6 days.
Setting [1] is: glucocorticoid arm: hydrocortisone 2.75 uM co-treatment, compound 1 µM.
Where [2] appears, read: glucocorticoid arm: hydrocortisone 2.75 uM co-treatment, compound 5 µM.
The mark [3] stands for this setting: glucocorticoid arm: hydrocortisone 2.75 uM pre-treated 2 days and continued, compound 1 µM.
Where [4] appears, read: glucocorticoid arm: hydrocortisone 2.75 uM pre-treated 2 days and continued, compound 5 µM.
The mark [5] stands for this setting: glucocorticoid arm: vehicle, compound 1 µM.
The mark [6] stands for this setting: glucocorticoid arm: vehicle, compound 5 µM.

SMILES strings stand for the structures. Structures can show the parent of a compound that is named as a salt. ± gives the standard deviation of the averaged measurements. Over roughly 1,900 compounds, “normalised cell viability (NPI; 0 = phenylarsine oxide control, 1 = DMSO control)” has its median near 1; the lowest 2% begin near 0.039. This is one part of the list.
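Further: CTB read-out in 384-well plates, mean of triplicate wells, normalised per plate against 1 µM phenylarsine oxide and 0.1% DMSO, compounds added 24 h after seeding.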

Regarding `CCCCCCCCCCC/C=C\C(C)(C)/C=C\CCCC(=O)O` [7,7-Dimethyl-(5Z,8Z)-eicosadienoic acid], the normalised cell viability came to 1.01 ± 0.013 under setting [1]; 1.01 ± 0.011 under setting [2]; 1.007 ± 0.0058 under setting [3]; 1.007 ± 0.0058 under setting [4]; 0.9913 ± 0.004 under setting [5]; 0.9977 ± 0.0025 under setting [6].
Take `Cc1cc2c(cc1Cl)N(C(=O)Nc1cccc3ncccc13)CC2`: the normalised cell viability amounted to 0.985 ± 0.011 under setting [1]; 0.965 ± 0.015 under setting [2]; 1 ± 0.016 under setting [3]; 1.03 ± 0.084 under setting [4]; 0.9793 ± 0.0086 under setting [5]; 0.992 ± 0.007 under setting [6].
Consider `CCCS(=O)(=O)Nc1ccc(F)c(C(=O)c2c[nH]c3ncc(-c4ccc(Cl)cc4)cc23)c1F` [Vemurafenib (PLX4032)], for which the normalised cell viability stood at 1.05 ± 0.011 under setting [1]; 0.997 ± 0.029 under setting [2]; 1.03 under setting [3]; 1.01 ± 0.026 under setting [4]; 1.017 ± 0.0058 under setting [5]; 1.007 ± 0.0058 under setting [6].
For the compound `CCCS(=O)(=O)Nc1ccc(F)c(C(=O)c2c[nH]c3ncc(-c4ccc(Cl)cc4)cc23)c1F` [vemurafenib], the normalised cell viability worked out at 1.04 ± 0.011 under setting [1]; 1.14 ± 0.02 under setting [2]; 1.03 ± 0.01 under setting [3]; 1.08 ± 0.01 under setting [4]; 1.01 ± 0.01 under setting [5]; 1.037 ± 0.0058 under setting [6].
Take `CCCCNC(=O)NS(=O)(=O)c1ccc(C)cc1` [Tolbutamide]: the normalised cell viability came out at 0.9913 ± 0.006 under setting [1]; 1 ± 0.024 under setting [2]; 0.809 ± 0.34 under setting [3]; 0.9917 ± 0.008 under setting [4]; 0.9977 ± 0.004 under setting [5]; 0.989 ± 0.011 under setting [6].
As for `Cn1c(=O)cc(N2CCC[C@@H](N)C2)n(Cc2ccccc2C#N)c1=O` [Alogliptin (SYR-322)], the normalised cell viability was 0.976 ± 0.012 under setting [1]; 1 ± 0.024 under setting [2]; 0.969 ± 0.027 under setting [3]; 1 ± 0.016 under setting [4]; 0.986 ± 0.0017 under setting [5]; 0.995 ± 0.013 under setting [6].
Consider `COc1cc(Nc2ncc(F)c(Nc3ccc4c(n3)N(COP(=O)(O)O)C(=O)C(C)(C)O4)n2)cc(OC)c1OC`, for which the normalised cell viability is 0.78 ± 0.02 under setting [1]; 0.53 ± 0.025 under setting [2]; 0.845 ± 0.018 under setting [3]; 0.635 ± 0.026 under setting [4]; 0.952 ± 0.026 under setting [5]; 0.632 ± 0.07 under setting [6].
Consider `COc1cc(Nc2ncc(F)c(Nc3ccc4c(n3)N(COP(=O)(O)O)C(=O)C(C)(C)O4)n2)cc(OC)c1OC` [R788 (Fostamatinib)], for which the normalised cell viability by setting is: under setting [1], 0.745 ± 0.02; under setting [2], 0.551 ± 0.041; under setting [3], 0.821 ± 0.019; under setting [4], 0.642 ± 0.036; under setting [5], 0.845 ± 0.025; under setting [6], 0.57 ± 0.035.
`CN1CC2c3ccccc3Oc3ccc(Cl)cc3C2C1` (centres undefined) [Asenapine]: the normalised cell viability under setting [1] was found to be 1.002 ± 0.0072; the normalised cell viability under setting [2] stood at 1.02 ± 0.024; the normalised cell viability under setting [3] was determined as 1.01 ± 0.011; the normalised cell viability under setting [4] came out at 1.01 ± 0.028; the normalised cell viability under setting [5] was found to be 0.995 ± 0.0087; the normalised cell viability under setting [6] turned out to be 1 ± 0.0092.
In the case of `CNC(=O)Nc1ccc(-c2nc(N3CC4CCC(C3)O4)c3cnn(C4CCC5(CC4)OCCO5)c3n2)cc1`, the normalised cell viability is, setting by setting: under setting [1], 0.382 ± 0.022; under setting [2], 0.333 ± 0.0042; under setting [3], 0.551 ± 0.013; under setting [4], 0.478 ± 0.095; under setting [5], 0.239 ± 0.013; under setting [6], 0.192 ± 0.017.
Regarding `CSc1nc(N)c2ncn([C@@H]3O[C@H](COP(=O)(O)OP(=O)(O)OP(=O)(O)O)[C@H](O)C3O)c2n1` (some centres undefined) [2-Methylthioadenosine triphosphate tetrasodium], the normalised cell viability under setting [1] is 0.9897 ± 0.005; the normalised cell viability under setting [2] amounted to 0.9943 ± 0.0081; the normalised cell viability under setting [3] stood at 0.9963 ± 0.0031; the normalised cell viability under setting [4] was 0.991 ± 0.0085; the normalised cell viability under setting [5] worked out at 1 ± 0.019; the normalised cell viability under setting [6] worked out at 0.9927 ± 0.004.
Consider `CC(=O)C(C)=O` [2,3-Butanedione], for which the normalised cell viability is, setting by setting: under setting [1], 0.99 ± 0.011; under setting [2], 0.9887 ± 0.0051; under setting [3], 0.9867 ± 0.0085; under setting [4], 1 ± 0.032; under setting [5], 0.9933 ± 0.0021; under setting [6], 0.9963 ± 0.0055.
Turning to `COc1cc(C(O)C(=O)O)ccc1O` (racemic) [(±)-Vanillylmandelic acid], the normalised cell viability is, setting by setting: under setting [1], 1.02 ± 0.01; under setting [2], 1.02 ± 0.04; under setting [3], 1.02 ± 0.011; under setting [4], 1.01 ± 0.011; under setting [5], 1.027 ± 0.0058; under setting [6], 1.02 ± 0.01.
On to `Cn1cc(-c2ccc3nnc(C(F)(F)c4ccc5ncccc5c4)n3n2)cn1`, for which the normalised cell viability under setting [1] was determined as 0.997 ± 0.012; the normalised cell viability under setting [2] is 1.04 ± 0.011; the normalised cell viability under setting [3] came to 0.99967 ± 0.00058; the normalised cell viability under setting [4] came to 1.04 ± 0.029; the normalised cell viability under setting [5] stood at 1.002 ± 0.0068; the normalised cell viability under setting [6] is 1.01 ± 0.012.
For `CN1[C@@H](CC(=O)c2ccccc2)CCC[C@H]1C[C@H](O)c1ccccc1` [alpha-Lobeline hydrochloride], the normalised cell viability under setting [1] stood at 1.003 ± 0.0064; the normalised cell viability under setting [2] is 0.977 ± 0.021; the normalised cell viability under setting [3] worked out at 1.006 ± 0.0069; the normalised cell viability under setting [4] is 1 ± 0.02; the normalised cell viability under setting [5] worked out at 0.991 ± 0.0044; the normalised cell viability under setting [6] was found to be 0.997 ± 0.011.
As for `CC(=O)OCC1=C(C(=O)O)N2C(=O)[C@@H](NC(=O)CSc3ccncc3)[C@H]2SC1` [Cephapirin sodium salt], the normalised cell viability is, setting by setting: under setting [1], 1.01 ± 0.011; under setting [2], 1 ± 0.02; under setting [3], 0.997 ± 0.015; under setting [4], 0.998 ± 0.0028; under setting [5], 1.007 ± 0.0058; under setting [6], 1.01.
Turning to `CCCCCCCCc1ccc(CCC(N)(CO)CO)cc1` [Fingolimod (FTY720) HCl], the normalised cell viability under setting [1] came to 1 ± 0.034; the normalised cell viability under setting [2] is 0.929 ± 0.078; the normalised cell viability under setting [3] amounted to 0.984 ± 0.047; the normalised cell viability under setting [4] turned out to be 0.963 ± 0.044; the normalised cell viability under setting [5] amounted to 0.9973 ± 0.0086; the normalised cell viability under setting [6] came to 0.842 ± 0.13.
Consider `CCCCCCCC/C=C\CCCCCCCC(=O)NCCc1ccc(O)c(O)c1` [N-Oleoyldopamine], for which the normalised cell viability reads like this: under setting [1], 0.988 ± 0.011; under setting [2], 1 ± 0.014; under setting [3], 1.02 ± 0.05; under setting [4], 0.982 ± 0.016; under setting [5], 0.993 ± 0.0044; under setting [6], 0.9893 ± 0.0063.
`Nc1ncnc2c1c(-c1cccc(OCc3ccccc3)c1)cn2C1CC(CN2CCC2)C1` (centres undefined): the normalised cell viability is 0.457 ± 0.025 under setting [1]; 0.366 ± 0.021 under setting [2]; 0.596 ± 0.0046 under setting [3]; 0.436 ± 0.062 under setting [4]; 0.939 ± 0.013 under setting [5]; 0.776 ± 0.039 under setting [6].
For `COC(=O)c1c(-c2cc(OC)c(OC)c(OC)c2)c2ccnc(OCc3ncccn3)c2c(=O)n1Cc1ccnc(C)c1`, the normalised cell viability is, setting by setting: under setting [1], 0.991 ± 0.0076; under setting [2], 1.02 ± 0.015; under setting [3], 1.02 ± 0.011; under setting [4], 1 ± 0.018; under setting [5], 0.9917 ± 0.0076; under setting [6], 0.9933 ± 0.0015.
Take `CCOC(=O)C1=C[C@]2(CC)CCCN3CCc4c(n1c1ccccc41)[C@@H]32` [Vinpocetine]: the normalised cell viability turned out to be 0.999 ± 0.011 under setting [1]; 1.013 ± 0.0058 under setting [2]; 0.907 ± 0.19 under setting [3]; 1.017 ± 0.0058 under setting [4]; 1.003 ± 0.0061 under setting [5]; 0.994 ± 0.0066 under setting [6].
For the compound `CC1CN(S(=O)(=O)c2cccc3cnccc23)CCN1` (centres undefined), the normalised cell viability under setting [1] came to 0.9777 ± 0.0078; the normalised cell viability under setting [2] was 0.966 ± 0.025; the normalised cell viability under setting [3] was found to be 0.9933 ± 0.0051; the normalised cell viability under setting [4] turned out to be 1.01 ± 0.091; the normalised cell viability under setting [5] worked out at 0.9757 ± 0.0074; the normalised cell viability under setting [6] worked out at 0.9753 ± 0.0076.
Regarding `CC1CNCCN1S(=O)(=O)c1cccc2cnccc12` (centres undefined), the normalised cell viability under setting [1] came out at 0.994 ± 0.0044; the normalised cell viability under setting [2] was determined as 0.987 ± 0.022; the normalised cell viability under setting [3] amounted to 1.013 ± 0.0058; the normalised cell viability under setting [4] worked out at 1.12 ± 0.084; the normalised cell viability under setting [5] worked out at 1.003 ± 0.0058; the normalised cell viability under setting [6] worked out at 0.719 ± 0.19.
Regarding `CNCCC(Oc1ccccc1OC)c1ccccc1` (centres undefined) [Nisoxetine hydrochloride], the normalised cell viability by setting is: under setting [1], 0.9923 ± 0.0025; under setting [2], 0.9793 ± 0.0092; under setting [3], 1.002 ± 0.0072; under setting [4], 1.05 ± 0.085; under setting [5], 0.9853 ± 0.0015; under setting [6], 0.989 ± 0.007.

For the origin of these results see the supplement of paper PMC8285479.
